Measured values: the RNAGym collection of RNA variant scans (doi:10.7554/elife.90254)
The source gives no read counts; variants with many changes may rest on few reads.

B1: OR4K15 (parent)
chain: GUUAACGGUCAUAGGCCAUGGAAACUAGGAGCACCAUUUCGCUGCCAGUGAAGAAAUGAACAAAGAAAAUCUGGGCCAGGCAGGCAUCAAAAGAAAUAGUCUUGCGCUCAACCAGAAAGUCUGUAAUCAUUUUAAGGGUA

Variants of: B1
Assay: self-cleavage, relative activity (ratio to wild type); higher = more cleavage; in vitro, sequencing; the parent is a self-cleaving ribozyme

| Variant | self-cleavage |
| --- | --- |
| A96G U108C A111G | 0.01 |
| A82G U87C A117G A125G | 0.11 |
| A91G A92G U100C | 1.82 |
| U87C A90G U131C U132C | 0.19 |
| A95G A116U U139A | 0.87 |
| A118G U122C A129G U130C | 0.28 |
| A82G U100C U102A A129G | 1.14 |
| C88U A94G U127A U130C | 0.5 |
| A89G A126G U130C | 0.68 |
| G84A A94U U108A A135G | 0 |
| U87C A92U U108C | 0.01 |
| A86G A94G A111U | 0.06 |
| A92G C113U A114U | 0.01 |
| U87A A116G G137A | 1.13 |
| A92G C105U U131C | 0.02 |
| U102C A117G U139G | 2.69 |
| A90G U103C U122C | 0.23 |
| A91C U102C A116G | 0.78 |
| U100C A111G A117G | 0.01 |
| A91G A129U U132A | 0.51 |
| C105U A117G U122C | 0.01 |
| A96G A118G A125G | 1.88 |
| A82U A94G A111G | 0 |

| Variant | self-cleavage |
| --- | --- |
| A94G A126G U130C | 0.53 |
| A94G C107U U130C | 0.02 |
| A114G U127C U131C | 0.13 |
| A92G A95U G138U | 2.18 |
| A91G U100C U102A | 1.53 |
| A90G G106A A135U | 0.01 |
| U108A C128A U131C | 0.01 |
| A90G A92G A94U U133C A134G | 1.39 |
| A90C U102C U108C A134U | 0 |
| A94G U100A U122A | 0.45 |
| A90C A92U U102C A118G | 2.2 |
| U97A A117G U130C | 1.11 |
| U87C A91G U100C U103A | 1.03 |
| A82U A94G A134U | 0.43 |
| A96G U103C A135G | 0.92 |
| U87A A116G A129U | 0.19 |
| A91G U108A U122C G123U A126G A129G | 0 |
| A114G U124G U132C | 0.08 |
| A92G U100C U124A | 1.1 |
| A94G C113U U130G | 0.01 |
| A110G A111G U132C | 0.01 |
| A92G A95G U130C | 0.7 |
| A91G A94G A135U | 0.9 |

| Variant | self-cleavage |
| --- | --- |
| U103C U108C U124A | 0 |
| U108C A114G A116U | 0 |
| A86U A89U A96G | 1.21 |
| A94C U108C C113A | 0 |
| A82U U102A A117G | 0.39 |
| A82U A117G U122G | 0.51 |
| A82U A92G U102A U122C | 0.06 |
| A91G U102C U108C | 0 |
| A110G A117U U120C | 0.03 |
| A91G A96G A117G | 1.08 |
| A96G U132G U139C | 1.26 |
| U122C U131C A135G | 0.94 |
| C105U A118G U139C | 0.14 |
| A92G U132G A140G | 1.2 |
| U103C A118G U132A A134G | 0.19 |
| A90G C105A U131A | 0.02 |
| U97C U102C U124C | 1.25 |
| A89U A111G U139A | 0 |
| A111U A117G U127A A129G U130C U131C | 0 |
| A89G A94G U133A | 1.57 |
| A96C A116G A118G | 0.04 |
| A98G U122A G137U U139A | 0.35 |
| A90G A111C U139C | 0.01 |

| Variant | self-cleavage |
| --- | --- |
| U122G U124C A129G | 1.57 |
| U103C G123A A135G | 1.17 |
| A86G A111G U122C | 0 |
| A82U A89G A111G | 0.01 |
| A96G A118U U131C | 0.29 |
| A96U U100C A117G U127C | 2.6 |
| A89C A92G U122A | 1.72 |
| A90G A94G A98G | 0.54 |
| A82U U87C A95U A96G | 0.06 |
| A98G A117U U120C | 0.38 |
| U102C A116G A118G | 0.4 |
| A82U A86G A110G U127C | 0.01 |
| A94U U127A U131C A140G | 2.51 |
| A90U U108C U131C | 0 |
| A95G U100A A114G A135G | 0.19 |
| A111G U120C A140U | 0 |
| A89U A134G A135G | 1.17 |
| U97C A116G U139C | 0.56 |
| A111G A116U U124C U130C A135C | 0 |
| A90G A96G A98G C105U U120C U131C | 0.01 |
| A90G A129G U130C | 0.26 |
| U87C A91G G138A | 0.85 |
| A94G A96G A111G | 0.01 |

| Variant | self-cleavage |
| --- | --- |
| A86G U122A U127C | 0.43 |
| A94U U103A A129G | 0.32 |
| U103C A110G U132C | 0.09 |
| A82G A110G A116G A135G | 0.22 |
| A95G A117U U124C | 1.31 |
| U87A U132G A140U | 2.62 |
| A82U U127A U132C | 0.27 |
| A90U A126G U139C | 1.53 |
| U103C A111G A140G | 0 |
| U102C A111G U127C | 0 |
| A94G A96G A126G U127C | 0.37 |
| A82G U100C C109A A134U | 0.27 |
| A95G U102C A111G | 0 |
| U87C A92G U127A | 2.48 |
| U103C U108C A140U | 0 |
| A89U U108C C113U | 0.01 |
| A96G C121U U122A A135G | 1.6 |
| A125G U130A U139C | 0.51 |
| A82G G104A A117G | 0.01 |
| A89U A94G U102C A135G | 1.93 |
| A82U U133C A140G | 0.24 |
| A82G A94G U103C | 1.57 |
| U100C A117G U132C | 1.74 |

| Variant | self-cleavage |
| --- | --- |
| U97C U102A C109A | 0.19 |
| A111G U122C A134G | 0 |
| A90G A114G A117G | 0.27 |
| C85U C109U A118G | 0.28 |
| U87C A91G U97C | 0.76 |
| A126G A129G U133A | 0.5 |
| A82U A92U A95G U127A | 0.29 |
| A96G A98G U103C | 0.18 |
| A82U U108C U133C | 0.01 |
| A92G G106U U124C | 0.01 |
| A92U U122A C128A | 1.1 |
| A94G U102A U132A | 0.35 |
| A86U U87C U127C | 0.64 |
| A89G A117U U131C A140G | 1.24 |
| A96G U102A U103C | 0.18 |
| U102A A110G A135G | 0.02 |
| A94G U127C A129G | 0.54 |
| A117G A129G U130C | 0.43 |
| U87C G104A A114U | 0.01 |
| A82G C107U A110G | 0.01 |
| A92G U103C U120C | 0.3 |
| A91G A118U U131C | 0.09 |
| A91C A96G A114G | 0.64 |

| Variant | self-cleavage |
| --- | --- |
| U87C A125G U130C | 0.02 |
| A92G U122C U124G U132C | 0.17 |
| A82U U87A A135U | 0.12 |
| A94U U103A A114G A118U | 0.03 |
| A94G A118G U132C | 0.95 |
| A86U U103C U131C | 0.49 |
| A89U A92G U130C | 1.43 |
| U87C C112U U132C | 0 |
| U103C A111G A126G | 0 |
| A96G A111U A126G U139C | 0.07 |
| U108C A114U U130C | 0.01 |
| U103C A110G A118G A129G U131C | 0.03 |
| A91G U102C A118G A129G | 1.09 |
| U108C A110G G136A | 0.01 |
| G84A U100C U122G U130C | 0.41 |
| A82U A91U U122G | 0.36 |
| U97C A110G A111G | 0.04 |
| U87C A92G A94G | 2 |
| A90U A92G U132A | 2.32 |
